# Assay results published in publication PMC4336329 (PLoS ONE, 2015).
# Out of some 310,000 compounds screened, about 2,200 (0.71%) showed an effect of 50% or more. The effect is printed as a negative number. Some of the results follow.
# Molecular target: human ether-à-go-go-related gene (hERG) potassium channel (human, UniProt Q12809)
# Experiment: primary screen, population patch clamp on CHO cells stably expressing hERG
# Sequence of human ether-à-go-go-related gene (hERG) potassium channel (Q12809 whole entry, looked up): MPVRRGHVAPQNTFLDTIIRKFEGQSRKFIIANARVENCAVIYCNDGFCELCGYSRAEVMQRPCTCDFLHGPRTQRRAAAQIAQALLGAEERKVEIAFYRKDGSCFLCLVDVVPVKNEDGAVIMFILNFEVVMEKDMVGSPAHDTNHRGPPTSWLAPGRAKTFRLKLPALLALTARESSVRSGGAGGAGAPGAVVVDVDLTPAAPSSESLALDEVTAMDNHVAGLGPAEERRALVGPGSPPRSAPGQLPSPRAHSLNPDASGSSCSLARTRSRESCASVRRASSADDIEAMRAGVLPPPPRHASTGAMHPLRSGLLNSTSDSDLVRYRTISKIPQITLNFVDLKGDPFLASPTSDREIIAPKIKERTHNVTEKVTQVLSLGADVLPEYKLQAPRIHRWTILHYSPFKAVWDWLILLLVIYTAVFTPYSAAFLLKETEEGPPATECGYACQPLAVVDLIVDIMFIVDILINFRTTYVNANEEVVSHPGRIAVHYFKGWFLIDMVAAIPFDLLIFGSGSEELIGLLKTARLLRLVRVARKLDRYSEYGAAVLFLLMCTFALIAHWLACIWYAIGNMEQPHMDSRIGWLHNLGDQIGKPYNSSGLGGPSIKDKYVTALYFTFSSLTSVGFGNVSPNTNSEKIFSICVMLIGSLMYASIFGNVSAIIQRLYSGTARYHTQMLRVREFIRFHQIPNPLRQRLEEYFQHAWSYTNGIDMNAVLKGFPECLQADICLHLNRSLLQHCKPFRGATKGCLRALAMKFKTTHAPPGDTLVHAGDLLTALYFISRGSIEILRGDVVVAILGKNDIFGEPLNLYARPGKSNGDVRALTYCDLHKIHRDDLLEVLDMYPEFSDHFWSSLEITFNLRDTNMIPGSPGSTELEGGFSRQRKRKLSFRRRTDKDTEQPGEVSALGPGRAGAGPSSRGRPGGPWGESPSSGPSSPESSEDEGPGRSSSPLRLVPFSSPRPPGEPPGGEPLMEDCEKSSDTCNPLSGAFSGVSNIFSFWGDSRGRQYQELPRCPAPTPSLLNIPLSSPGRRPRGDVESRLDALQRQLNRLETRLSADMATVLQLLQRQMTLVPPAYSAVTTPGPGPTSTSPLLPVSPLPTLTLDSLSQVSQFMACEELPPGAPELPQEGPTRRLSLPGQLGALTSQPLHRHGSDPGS
row,Structure (SMILES),"hERG current change (%, negative = inhibition) at 1uM [%]"
1,COc1ccc([N+](=O)[O-])cc1NC(C)C,5.16
2,CC(=O)c1ccc(OCC(=O)Nc2c(C)nn(-c3ccccc3)c2C)cc1,13.9
3,CCOc1cc2nc(-c3ccc(OC)c(OC)c3)nc(N3CC(C)OC(C)C3)c2cc1OC (stereo not drawn),15.3
4,CCOC(=O)C1(C)NC(c2ccccc2F)C2C(=O)N(CC)C(=O)C21 (stereo not drawn),12.5
5,Cc1ccc(SCC(=O)c2c(C)nc3cc(C)ccn23)cc1,24.6
6,c1ccc(-n2cnc3cc(NCc4ccncc4)ccc32)cc1,5.4
7,CCc1noc(C)c1C(=O)N1CCCC(N2CCN(c3ccccc3F)CC2)C1 (stereo not drawn),-0.882
8,O=C(CSc1nnc2ccccn12)NC(=O)NC1CCCCC1,2.32
9,CN(C)CC/C=C1/c2ccccc2Sc2ccc(Cl)cc21,10.9
10,CCOc1ccc(C(=O)COC(=O)c2cc(=O)[nH]c3ccccc23)cc1,7.03
11,Cc1ccsc1/C=c1\sc2ncnn2c1=O,10.9
12,Cc1ccc(NC(=O)CSc2nnc(-c3cccs3)n2Cc2ccco2)cc1,-42
13,CSCCC(NS(=O)(=O)c1ccc2c(c1)oc(=O)n2C)C(=O)NCc1ccccc1 (stereo not drawn),12
14,COc1ccc(C2CC(c3cccs3)=NN2C(=O)CSc2nc3c(cnn3-c3ccccc3)c(=O)[nH]2)cc1 (stereo not drawn),0.415
15,COCCNS(=O)(=O)c1cccc2cccnc12,15.4
16,CCc1ccc2c(c1)C1(NN=C(c3cccc4ccccc34)S1)C(=O)N2 (stereo not drawn),12.5
17,O=C(O)c1ccccc1NC(c1ccccc1)c1ccc(Cl)cc1 (stereo not drawn),19.6
18,COCCNc1c(-c2cc3ccc(C)c(C)c3[nH]c2=O)nc2ccccn12,-77
19,O=C1NC(=S)N(c2ccc(F)cc2)C(=O)/C1=C/c1ccco1,10.3
20,N#Cc1ccc(CSc2nnc3ccccn23)cc1,4.13
21,Cc1csc2nc(O)c(C(=O)NCCCc3ccccc3)c(=O)n12,-2.65
22,COc1ccc2c(CC(=O)NC(Cc3ccc(Cl)cc3)C(=O)O)cc(=O)oc2c1C (stereo not drawn),8.85
23,COc1ccc(S(=O)(=O)N(C)c2ccc(C(=O)NCC3CCCO3)cc2)cc1OC (stereo not drawn),8.52

row,Structure (SMILES),"hERG current change (%, negative = inhibition) at 1uM [%]"
1,O=C(Cn1cnc2c(nnn2Cc2ccc(F)cc2)c1=O)NCc1ccccc1,7.8
2,CC(C)(C)OC(=O)N[C@@H](C(=O)OC(C)(C)C)c1ccc(Br)cc1,15.8
3,CCC(Sc1nc2cc(OC)c(OC)cc2c(=O)n1CCc1ccc(S(N)(=O)=O)cc1)C(=O)NCCOC (stereo not drawn),-2.61
4,COc1ccc(/C=N\NC(=O)c2ccc(-c3ccccc3)cc2)c(OC)c1OC,12
5,Cc1cc(C)c(S(=O)(=O)Nc2ccccc2C(=O)OCC(=O)NCc2ccccc2)c(C)c1,9.3
6,CCOC(=O)C1(CCCc2ccccc2)CCN(C(=O)c2cnn(CC)c2)CC1,-3.79
7,O=C(NC(=S)N(CCO)Cc1ccccc1)c1ccc(F)cc1Cl,8.89
8,COc1cccc(OCCSc2nnc3sc4ccccc4n23)c1,7.78
9,CC(Oc1ccc(Br)cc1)C(=O)NCC(c1cccs1)N1CCOCC1 (stereo not drawn),-6.38
10,COC(=O)CC(CP(=O)([O-])CN(C)C=O)C(=O)OC (stereo not drawn),9.35
11,CC(C)CC1NC(=O)N(CC(=O)N2CCCc3ccccc32)C1=O (stereo not drawn),9.71
12,COc1cccc(C(=O)Nc2ccc(N3CCN(Cc4ccccc4)CC3)cc2)c1,10.5
13,Cc1ccc(C(C)C)c(OCC(O)CN(C)Cc2ccccc2)c1.Cl (stereo not drawn),8.01
14,C=CCN(Cc1ccco1)S(=O)(=O)c1ccc(Cl)cc1,8.29
15,CNC(=O)Cn1c(=O)n(C)c2ccccc21,1.2
16,C=CCN1C(=O)CC(C(=O)NC)SC1=Nc1ccc(C(=O)OCC)cc1 (stereo not drawn),15.3
17,O=C(Nc1ccc2c(c1)OCO2)C1CCCCN1S(=O)(=O)c1ccccc1 (stereo not drawn),3.49
18,CCN(CC)C(=O)CSC1c2ccccc2C(=O)N1c1ccccc1 (stereo not drawn),0.631
19,COc1ccc(NC(=O)C2CCC(N3C(=O)C4CCCCC4C3=O)CC2)cc1 (stereo not drawn),9.94
20,COc1ccc(Cl)cc1NC(=O)CSc1nc2ccsc2c(=O)n1CC1CCC(C(=O)O)CC1 (stereo not drawn),7.89
21,O=C(CSc1ccc(-c2cccs2)nn1)Nc1ccccc1F,-13.8
22,COc1ccc2c(c1)C(=O)C(=O)N2,15.4
23,CCCNC(=O)NC(=O)CN1CCCC1c1ccc2c(c1)OCCO2 (stereo not drawn),8.83

row,Structure (SMILES),"hERG current change (%, negative = inhibition) at 1uM [%]"
1,Cc1onc(-c2ccccc2Cl)c1C(=O)N(Cc1ccc(N(C)C)cc1)C(C)C,16.2
2,Cc1ccc(C(C(=O)NCc2ccc(F)cc2)N(Cc2ccco2)C(=O)c2snc(C(N)=O)c2N)o1 (stereo not drawn),16.6
3,CC(C)Oc1ccc(C(=O)Nc2ccc(N3CCN(C(=O)c4ccco4)CC3)cc2)cc1,6.88
4,CCOC(=O)N1CCC(N2C(=O)c3ccccc3C2Nc2ccccc2C)CC1 (stereo not drawn),-8.54
5,CC(C)(C)c1nc(N)nc(=O)[nH]1,9.8
6,CC(=N\NC(=O)c1ccc([N+](=O)[O-])cc1)/C(=N/O)C(=O)Nc1ccccc1,-1.37
7,c1cncc(CSc2ccc(-c3cccnc3)nn2)c1,9.38
8,COc1ccc(C(=O)OCN2C(=O)c3ccccc3C2=O)cc1,14.9
9,CCOC(=O)c1c(C)[nH]c(C(=O)COC(=O)COc2ccccc2C)c1C,4.95
10,COc1ccc(S(=O)(=O)N2CCOCC2)cc1NC(=O)Cc1coc2cc(C)c(C)cc12,14
11,CCNc1cc(N2CCOCC2)nc(SC)n1,8.31
12,CC/C(=N\Nc1nncc2ccccc12)c1ccc(F)cc1,3.77
13,CN1CCN(C2=NCCO2)CC1,1.97
14,Cc1cccc(C(=O)N2CCN(S(=O)(=O)N3CCCCC3)CC2)c1,11.8
15,CC(=O)c1cccc(OCc2cc(C(=O)N3CCSCC3)no2)c1,14.9
16,CCOC(=O)CSc1ncnc2c(C(=O)OCC)c3n(c12)CCC3,-10.4
17,O=C(O)c1ccc(-c2cccc(Cl)c2)o1,5.28
18,CN(C)/C=C/C(=O)c1ccc(Cl)cc1,16.6
19,O=C(C1=C[C@H](c2ccc3c(c2)OCO3)C[C@H](OCCCCO)O1)N1CCN(Cc2ccc3c(c2)OCO3)CC1,3.48
20,CCCCN(CCCC)c1nc2ccccc2nc1NS(=O)(=O)c1ccc(NC(C)=O)cc1,11.8
21,COc1ccc(S(=O)(=O)N2CCN(C(=O)[C@H](Cc3ccccc3)NC(=O)c3ccco3)CC2)cc1,-1.26
22,O=C(CSCc1ccc(Cl)cc1Cl)Nc1nccs1,9.06
23,COc1nnc(-c2ccc(C)c(S(=O)(=O)NC(C)(C)CO)c2)c2ccccc12,10.4

row,Structure (SMILES),"hERG current change (%, negative = inhibition) at 1uM [%]"
1,Cc1ccccc1-n1nnnc1SCc1cc(=O)n2ccsc2n1,-1.61
2,CCOC(=O)c1sc(Nc2ccccc2)nc1C,9.33
3,CCOc1ccc(C(=O)NNC2CC(=O)N(Cc3ccc(Cl)cc3)C2=O)cc1OC (stereo not drawn),5.78
4,CCOC(=O)C1=C(N)OC(CCl)=C(C#N)C1c1ccsc1 (stereo not drawn),8.31
5,O=C(CSc1nnnn1-c1ccc2c(c1)OCCO2)N1CCc2ccccc21,9.11
6,Cl.c1ccc(CCNCc2cccnc2)cc1,6.78
7,CC(C)(C)[C@H]1C=C(C(=O)N2CCN(Cc3ccccc3)CC2)O[C@@H](OCc2ccc(CO)cc2)C1,3.52
8,COc1ccc(NC(=O)CC2CC3CCC2C3)cn1 (stereo not drawn),16.4
9,CN(C)S(=O)(=O)c1cccc(NC(=O)CCNC(=O)c2ccccc2Cl)c1,4.35
10,COc1cc(/C=C2/SC(=Nc3ccc(O)cc3)NC2=O)ccc1O,11.9
11,Cc1ccc(CNC(=O)CN2C(=O)C3(OCCCO3)c3ccccc32)cc1,-0.442
12,CCOC(=O)c1cnc(SC2CCc3ccccc3C2=O)nc1N (stereo not drawn),1.07
13,COCc1cc(C)nc(Nc2ccc(C)cc2C)c1C#N,10.4
14,O=C(OCC(=O)N1CCCC1=O)c1cccc([N+](=O)[O-])c1,18.1
15,COc1ccc(-c2c(C#Cc3ccsc3)c3cc(-c4ccc(OC)c(F)c4)ccc3n2C)cc1,17.4
16,O=C(CSc1cccc[n+]1[O-])Nc1ccc2c(c1)OCCO2,7.82
17,CNc1nc(C)c(C(=O)c2ccc(Cl)cc2)s1,5.39
18,COC(=O)CC1=C(C(=O)OC)[C@@H](c2ccccc2[N+](=O)[O-])C(C#N)=C(N)O1,20.8
19,O=C(/C=C/c1ccccc1)N/C(=C\c1ccco1)C(=O)NCCO,-8.29
20,CC(C)(C)NC(=S)NCc1cccnc1,-0.441
21,O=C(N/N=C/c1cc([N+](=O)[O-])ccc1O)c1cccc(N2CCCC2=O)c1,-8.98
